# Results as given in the supplement of paper PMC8728848.
# Some of the results follow.
# B1: ZG-16 (Homo sapiens), O60844 (protein)
# chain: IQARSSSYSGEYGSGGGKRFSHSGNQLDGPITALRVRVNTYYIVGLQVRYGKVWSDYVGGRNGDLEEIFLHPGESVIQVSGKYKWYLKKLVFVTDKGRYLSFGKDSGTSFNAVPLHPNTVLRFISGRSGSLIDAIGLHWDVYPTSCSRCSRGSDDDDKAEPRGPTIKPCPPCKCPAPNLLGGPSVFIFPPKIKDVLMISLSPIVTCVVVDVSEDDPDVQISWFVNNVEVHTAQTQTHREDYNSTLRVVSALPIQHQDWMSGKEFKCKVNNKDLPAPIERTISKPKGSVRAPQVYVLPPPEEEMTKKQVTLTCMVTDFMPEDIYVEWTNNGKTELNYKNTEPVLDSDGSYFMYSKLRVEKKNWVERNSYSCSVVHEGLHNHHTTKSFSRTPGKRTYHHHHHHARKLTR
# Tests used:
# Experiment in all cases: glycan array binding signal (z-score within array); higher = stronger binding
# Conditions in all cases: glycan notation: IUPAC condensed, linker removed
# [1] = molecular target: Neu5Ac(a2-6)Gal(b1-4)GlcNAc(b1-2)Man(a1-3)Man(b1-4)GlcNAc(b1-4)GlcNAc
# Method in brief: (§1)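 The binding signal is a Z-score computed within each array and averaged over linkers. Arrays of the same protein sequence at different concentrations or buffers were also averaged together. Data originate from 3228 arrays in the Consortium for Functional Glycomics database, kept only where the protein sequence was available.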
# [2] = molecular target: Neu5Ac(a2-6)Gal(b1-4)GlcNAc(b1-2)Man(a1-3)[Gal(b1-4)GlcNAc(b1-2)Man(a1-6)]Man(b1-4)GlcNAc(b1-4)GlcNAc
# Method in brief: as §1
# [3] = molecular target: Neu5Ac(a2-6)Gal(b1-4)GlcNAc(b1-2)Man(a1-3)[GlcNAc(b1-2)Man(a1-6)]Man(b1-4)GlcNAc(b1-4)GlcNAc
# Method in brief: as §1
# [4] = molecular target: Neu5Ac(a2-6)Gal(b1-4)GlcNAc(b1-2)Man(a1-3)[GlcNAc(b1-2)Man(b1-4)GlcNAc(b1-2)Man(a1-6)]Man(b1-4)GlcNAc(b1-4)GlcNAc
# Method in brief: as §1
# [5] = molecular target: Neu5Ac(a2-6)Gal(b1-4)GlcNAc(b1-2)Man(a1-3)[Man(a1-6)]Man(b1-4)GlcNAc(b1-4)GlcNAc
# Method in brief: as §1
# [6] = molecular target: Neu5Ac(a2-6)Gal(b1-4)GlcNAc(b1-2)Man(a1-3)[Neu5Ac(a2-6)Gal(b1-4)GlcNAc(b1-2)Man(a1-6)]Man(b1-4)GlcNAc(b1-4)GlcNAc
# Method in brief: as §1
# [7] = molecular target: Neu5Ac(a2-6)Gal(b1-4)GlcNAc(b1-2)Man(a1-6)Man(b1-4)GlcNAc(b1-4)GlcNAc
# Method in brief: as §1
# [8] = molecular target: Neu5Ac(a2-6)Gal(b1-4)GlcNAc(b1-2)Man(a1-6)[Gal(b1-4)GlcNAc(b1-2)Man(a1-3)]Man(b1-4)GlcNAc(b1-4)GlcNAc
# Method in brief: as §1
# [9] = molecular target: Neu5Ac(a2-6)Gal(b1-4)GlcNAc(b1-2)Man(a1-6)[GlcNAc(b1-2)Man(a1-3)]Man(b1-4)GlcNAc(b1-4)GlcNAc
# Method in brief: as §1
# [10] = molecular target: Neu5Ac(a2-6)Gal(b1-4)GlcNAc(b1-2)Man(a1-6)[Man(a1-3)]Man(b1-4)GlcNAc(b1-4)GlcNAc
# Method in brief: as §1
# [11] = molecular target: Neu5Ac(a2-6)Gal(b1-4)GlcNAc(b1-3)Gal(b1-3)GlcNAc
# Method in brief: as §1
# [12] = molecular target: Neu5Ac(a2-6)Gal(b1-4)GlcNAc(b1-3)Gal(b1-4)GlcNAc
# Method in brief: as §1
# [13] = molecular target: Neu5Ac(a2-6)Gal(b1-4)GlcNAc(b1-3)Gal(b1-4)GlcNAc(b1-3)Gal(b1-4)GlcNAc
# Method in brief: as §1
# [14] = molecular target: Neu5Ac(a2-6)Gal(b1-4)GlcNAc(b1-3)Gal(b1-4)[Fuc(a1-3)]GlcNAc(b1-3)Gal(b1-4)[Fuc(a1-3)]GlcNAc
# Method in brief: as §1
# [15] = molecular target: Neu5Ac(a2-6)Gal(b1-4)GlcNAc(b1-3)GalNAc
# Method in brief: as §1
# [16] = molecular target: Neu5Ac(a2-6)Gal(b1-4)GlcNAc6S
# Method in brief: as §1
# Neu5Ac(a2-6)GalNAc = molecular target: Neu5Ac(a2-6)GalNAc
# Method in brief: as §1
# [17] = molecular target: Neu5Ac(a2-6)GalNAc(b1-4)GlcNAc
# Method in brief: as §1
# [18] = molecular target: Neu5Ac(a2-6)GlcNAc(b1-4)GlcNAc
# Method in brief: as §1
# [19] = molecular target: Neu5Ac(a2-6)GlcNAc(b1-4)GlcNAc(b1-4)GlcNAc
# Method in brief: as §1
# Neu5Ac(a2-8)Neu5Ac = molecular target: Neu5Ac(a2-8)Neu5Ac
# Method in brief: as §1
# [20] = molecular target: Neu5Ac(a2-8)Neu5Ac(a2-3)Gal(b1-4)Glc
# Method in brief: as §1
# [21] = molecular target: Neu5Ac(a2-8)Neu5Ac(a2-3)[GalNAc(b1-4)]Gal(b1-4)Glc
# Method in brief: as §1
# [22] = molecular target: Neu5Ac(a2-8)Neu5Ac(a2-8)Neu5Ac
# Method in brief: as §1
# [23] = molecular target: Neu5Ac(a2-8)Neu5Ac(a2-8)Neu5Ac(a2-3)Gal(b1-4)Glc
# Method in brief: as §1
# [24] = molecular target: Neu5Ac(a2-8)Neu5Ac(a2-8)Neu5Ac(a2-3)[GalNAc(b1-4)]Gal(b1-4)Glc
# Method in brief: as §1
# [25] = molecular target: Neu5Ac(a2-8)Neu5Ac(a2-8)Neu5Ac(a2-8)Neu5Ac(a2-3)[GalNAc(b1-4)]Gal(b1-4)Glc
# Method in brief: as §1
# [26] = molecular target: Neu5Ac(b2-6)Gal(b1-4)GlcNAc
# Method in brief: as §1
# Neu5Ac(b2-6)GalNAc = molecular target: Neu5Ac(b2-6)GalNAc
# Method in brief: as §1
# [27] = molecular target: Neu5Ac9Ac(a2-3)Gal(b1-3)GlcNAc
# Method in brief: as §1
# [28] = molecular target: Neu5Ac9Ac(a2-3)Gal(b1-4)GlcNAc
# Method in brief: as §1
# [29] = molecular target: Neu5Ac9Ac(a2-6)Gal(b1-4)GlcNAc
# Method in brief: as §1
# [30] = molecular target: Neu5Gc(a2-3)Gal(b1-3)GlcNAc
# Method in brief: as §1
# [31] = molecular target: Neu5Gc(a2-3)Gal(b1-3)[Fuc(a1-4)]GlcNAc
# Method in brief: as §1
# Neu5Gc(a2-3)Gal(b1-4)Glc = molecular target: Neu5Gc(a2-3)Gal(b1-4)Glc
# Method in brief: as §1
# [32] = molecular target: Neu5Gc(a2-3)Gal(b1-4)GlcNAc
# Method in brief: as §1
# [33] = molecular target: Neu5Gc(a2-3)Gal(b1-4)[Fuc(a1-3)]GlcNAc
# Method in brief: as §1
# [34] = molecular target: Neu5Gc(a2-6)Gal(b1-4)GlcNAc
# Method in brief: as §1
# Neu5Gc(a2-6)GalNAc = molecular target: Neu5Gc(a2-6)GalNAc
# Method in brief: as §1
# [35] = molecular target: Neu5Gc(b2-6)Gal(b1-4)GlcNAc
# Method in brief: as §1
binder,measurement,setting,value
B1,glycan array binding signal (z-score),[1],-0.203
same,glycan array binding signal (z-score),[2],-0.241
same,glycan array binding signal (z-score),[3],-0.185
same,glycan array binding signal (z-score),[4],-0.177
same,glycan array binding signal (z-score),[5],-0.148
same,glycan array binding signal (z-score),[6],-0.164
same,glycan array binding signal (z-score),[7],-0.209
same,glycan array binding signal (z-score),[8],-0.245
same,glycan array binding signal (z-score),[9],-0.227
same,glycan array binding signal (z-score),[10],-0.222
same,glycan array binding signal (z-score),[11],-0.176
same,glycan array binding signal (z-score),[12],-0.213
same,glycan array binding signal (z-score),[13],-0.182
same,glycan array binding signal (z-score),[14],-0.129
same,glycan array binding signal (z-score),[15],-0.181
same,glycan array binding signal (z-score),[16],-0.211
same,glycan array binding signal (z-score),Neu5Ac(a2-6)GalNAc,-0.229
same,glycan array binding signal (z-score),[17],-0.162
same,glycan array binding signal (z-score),[18],-0.218
same,glycan array binding signal (z-score),[19],-0.207
same,glycan array binding signal (z-score),Neu5Ac(a2-8)Neu5Ac,-0.156
same,glycan array binding signal (z-score),[20],-0.184
same,glycan array binding signal (z-score),[21],-0.156
same,glycan array binding signal (z-score),[22],-0.153
same,glycan array binding signal (z-score),[23],-0.127
same,glycan array binding signal (z-score),[24],-0.172
same,glycan array binding signal (z-score),[25],-0.15
same,glycan array binding signal (z-score),[26],-0.221
same,glycan array binding signal (z-score),Neu5Ac(b2-6)GalNAc,-0.139
same,glycan array binding signal (z-score),[27],0.058
same,glycan array binding signal (z-score),[28],-0.179
same,glycan array binding signal (z-score),[29],-0.234
same,glycan array binding signal (z-score),[30],-0.062
same,glycan array binding signal (z-score),[31],-0.132
same,glycan array binding signal (z-score),Neu5Gc(a2-3)Gal(b1-4)Glc,-0.195
same,glycan array binding signal (z-score),[32],-0.2
same,glycan array binding signal (z-score),[33],-0.11
same,glycan array binding signal (z-score),[34],-0.228
same,glycan array binding signal (z-score),Neu5Gc(a2-6)GalNAc,-0.17
same,glycan array binding signal (z-score),[35],-0.151
